Laboratory results: PMC12136788
The list shows a part of the results.

B1: chr1:179108573:179108674:-|CDS|ENSG00000143322|unk|total|mutant (ssRNA)
RNA: GGGAGUUCUACAGUCCGACGAUCAGCCAAGUUAUUGCCCAGAGGAGCCACAGCUCUUCCUCUCAGAACACCCUCUGGGGAUCCCGCCAUUACAGAGAAGGACCCUCCAGGGGUGGGAGUGGCUGGAGUGGCAGCUGCCCCCAACAACAGAGGAUUGAGCAUCA
B2: ENSG00000107863:be:win_2051|CDS|ENSG00000107863|bound_else_gene|NA|bound_elsewhere_windowed (ssRNA)
RNA: GGGAGUUCUACAGUCCGACGAUCCUUUAUCUGGAGCCUCUGCCAAGCCUGCCCCUCAGUCGAGUGAAAACGCUGGUACUUCAGAUUUAGAACUACCUGUCAGUCAAAGGAAUCAAGAUUUAAGUUUACAAGAGGCUGAAACUGCAACAGAGGAUUGAGCAUCA
B3: chr11:119024350:119024909:-|three_prime_utr|ENSG00000137700|control|control|control (ssRNA)
RNA: GGGAGUUCUACAGUCCGACGAUCUCCCACGGUGGCCUUCCCCCUGCACGCUCUGCGGGGAGAAAAGGAGGGGCCUGCCUGGCUAGCCCUGAACCUUUCACUUUCCAUUUCUGCGCCUUUUCUGUCACCCGGGUGGCGCUGGAACAACAGAGGAUUGAGCAUCA
B4: chr11:61873518:61873813:-|three_prime_utr|ENSG00000221968|control|control|control (ssRNA)
RNA: GGGAGUUCUACAGUCCGACGAUCCCCUCACAUGUGUAUUCAGCAGCCCUAUGGCCUUGGCUCUGGGCCUGAUGGGACAGGGGUAGAGGGAAGGUGAGCAUAGCACAUUUUCCUAGAGCGAGAAUUGGGGGAAAGCUGUUAUUUCAACAGAGGAUUGAGCAUCA
B5: chr2:216675642:216675774:-|3pUTR|ENSG00000115461|msi1|total|mutant (ssRNA)
RNA: GGGAGUUCUACAGUCCGACGAUCUUUUUCUUUGUUUUUUUCUUUCUUCCUUUCUUUCAAAGGUUUGCAUUAACUUUUCAAAGCCGUUCCUACCGGGGCAUUGAGGAGCUUCCUCAUUCUGGGAAAACUGAGAAAACCCAUAUUCAACAGAGGAUUGAGCAUCA
B6: ENSG00000070961:be:win_3001|CDS|ENSG00000070961|bound_else_gene|NA|bound_elsewhere_windowed (ssRNA)
RNA: GGGAGUUCUACAGUCCGACGAUCGAAGGAAUCUUUAACAAUGCCAUCUUCUGCACAAUUGUUUUAGGCACUUUUGUGGUACAGAUAAUAAUUGUGCAGUUUGGUGGAAAACCUUUCAGUUGUUCAGAACUUUCAAUAGAACAGCAACAGAGGAUUGAGCAUCA
B7: chr20:4700211:4700532:+|3pUTR|ENSG00000171867|msi1|FALSE|unique (ssRNA)
RNA: GGGAGUUCUACAGUCCGACGAUCUUGCCUGGAUACCUCUGGCUCCUUCAGCAGCUAGAGCUCAGUAUACUAAUGCCCUAUCUUAGUAGAGAUUUCAUAGCUAUUUAGAGAUAUUUUCCAUUUUAAGAAAACCCGACAACAUUUCAACAGAGGAUUGAGCAUCA
B8: chr19:48485270:48485772:-|three_prime_utr|ENSG00000142235|control|control|control (ssRNA)
RNA: GGGAGUUCUACAGUCCGACGAUCCCCCUGACCCCCCUGACCCCCUCGGAGCCAAAUGAGGCAGGAAUCCCCCCGCCCCUCCAUAGAGAGCCGCCUUUCUCGGAACUGAACUGAACUCUUUUGGGCCUGGAGCCCCUCGACACACAACAGAGGAUUGAGCAUCA
B9: chr17:15565482:15566353:-|three_prime_utr|ENSG00000241322|control|control|control (ssRNA)
RNA: GGGAGUUCUACAGUCCGACGAUCCACCCAAAGAAAAAGUCUUGGAAAAUCCCUAUGUCACCUGACCAAUUCCUCCUGACUGUUAGCGCCCUGCAGCACGCCCGUAAUUCCGGGGAAUUUGCCUAUCCCUGUAGGCCCCAAACACAACAGAGGAUUGAGCAUCA
B10: chr2:196133582:196137729:-|three_prime_utr|ENSG00000081320|control|control|control (ssRNA)
RNA: GGGAGUUCUACAGUCCGACGAUCUCUGUAAGGUCCUCUGAAGACAAGACUUCUAAAUCCUCCUGUAAUGGAACCUGUGGUGAUAGAGAAGACAAAGAGAAUAUCCCAGAGGAUAGCAGCAUGGUUUCCAAAAGAUUUCGUUUCCAACAGAGGAUUGAGCAUCA
B11: chr11:113738268:113738383:-|CDS|ENSG00000086827|unk|total|mutant (ssRNA)
RNA: GGGAGUUCUACAGUCCGACGAUCUGCUUUUUGGCCCAAAUGCGGGCACAGAAAGGUGAACUUCUGGAAAGAUUAUCAAGUGCCCGGAACUUUUCAAAUAUGGACGAUGAAGAGAAUUAUUCUGCAGCAAGUAAAGCAGUCCGGCAACAGAGGAUUGAGCAUCA
B12: chr19:34227675:34227687:+|3pUTR|ENSG00000257103|msi1_unk|total|mutant (ssRNA)
RNA: GGGAGUUCUACAGUCCGACGAUCUUAAAACAUGAGCAUUAAAUAUAUUUGGAACCGCAGAAGGUUAAGUAAUUUCUUAUGUACCGUUAAACUAAAGCAGUACUUCAGUGGGACUUAACAAGUAUUUUUUCAUCACUGAAAGGUCAACAGAGGAUUGAGCAUCA
B13: chr12:47968718:47968836:+|3pUTR|ENSG00000134291|unk|FALSE|unique (ssRNA)
RNA: GGGAGUUCUACAGUCCGACGAUCCUGGGAGCUUUUUGAAAAGAAAGAAAAAAGUGUGUUGGCUUUUUUUUUUUUUAGAAAGUUAGAAUUGUUUUUACCAAGAGUCUAUGUGGGGCUUGAUUCACCCUUCAUCCAUUGGCUGGACAACAGAGGAUUGAGCAUCA
B14: ENSG00000124766:be:win_3751|3pUTR|ENSG00000124766|bound_else_gene|NA|bound_elsewhere_windowed (ssRNA)
RNA: GGGAGUUCUACAGUCCGACGAUCUUGUACAUUUAAGUCUGUAUUAUAAUAAGCAAAAAGAUUGUGUGUAUGUAUGUUUAAUAUAACAUGACAGGCACUAGGACGUCUGCCUUUUUAAGGCAGUUCCGUUAAGGGUUUUUGUUUCAACAGAGGAUUGAGCAUCA

Each binder was assayed against MSI1 full-length (mouse, UniProt Q61474 1-362) (assay: nsRBNS (natural sequence RNA bind-n-seq); RBNS binding buffer (assumed for nsRBNS): 25 mM Tris pH 7.5, 150 mM KCl, 3 mM MgCl2, 0.01% Triton X-100, 500 ug/ml BSA, 20 U/ml SUPERase-In, 4 C; UNK is unkempt and MSI1 is Musashi-1; names of the RNAs are library labels; protein concentration not given here; high values mean tight binding).
Chain of UniProt Q61474 (Q61474 whole entry): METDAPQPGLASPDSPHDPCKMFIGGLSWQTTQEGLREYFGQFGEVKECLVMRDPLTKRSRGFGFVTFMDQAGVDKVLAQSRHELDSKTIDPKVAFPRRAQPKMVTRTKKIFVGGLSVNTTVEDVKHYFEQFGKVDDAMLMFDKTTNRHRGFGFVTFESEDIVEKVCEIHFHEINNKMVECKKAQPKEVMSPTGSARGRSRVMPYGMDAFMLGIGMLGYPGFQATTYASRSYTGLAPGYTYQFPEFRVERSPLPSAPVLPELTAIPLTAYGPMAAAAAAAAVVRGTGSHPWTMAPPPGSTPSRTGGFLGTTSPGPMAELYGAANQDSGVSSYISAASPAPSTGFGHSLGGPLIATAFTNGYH

In order of falling binding signal:
1. B7  10.4 enrichment R
2. B12  1.31 enrichment R
3. B8  0.962 enrichment R
4. B14  0.578 enrichment R
5. B4  0.542 enrichment R
6. B2  0.537 enrichment R
7. B9  0.519 enrichment R
8. B10  0.485 enrichment R
9. B6  0.441 enrichment R
10. B1  0.418 enrichment R
11. B13  0.412 enrichment R
12. B3  0.361 enrichment R
13. B5  0.255 enrichment R
14. B11  0.248 enrichment R
